Test results: patent US20250332112A1, “IONIZABLE CATIONIC LIPIDS FOR LIPID NANOPARTICLES” (GENEVANT SCIENCES GMBH, priority 2022, published 2025)
For at least one compound, name, drawing or mass did not settle the structure.

Experiment: Particle characteristics of LNPs containing luciferase mRNA and novel ionizable lipids
Type: physicochemical
Details: Table 4; luciferase mRNA LNP 1.6:54.6:32.8:10.9
Description: The lipid solution contains 4 components: a PEG-conjugated lipid, an ionizable lipid, cholesterol, and a phospholipid (e.g., DSPC). Lipid stocks were prepared using the lipid identities and molar ratios as described, to achieve a total concentration of ˜7 mg/mL in 100% ethanol. Firefly luciferase mRNA (TriLink Biotechnologies, L-7202) or ornithine transcarbamylase (OTC) mRNA (TriLink Biotechnologies, custom designed) was diluted in acetate, pH 5 buffer and nuclease free water to achieve a target concentration of 0.366 mg/mL mRNA in 100 mM acetate, pH 5. Equal volumes of the lipid and nucleic acid solutions were blended at a flow rate of 400 mL/min through a T-connector, and diluted with ˜4 volumes of PBS, pH 7.4. Formulations were placed in Slide-A-Lyzer dialysis units (MWCO 10,000) and dialyzed overnight against 10 mM Tris, 500 mM NaCl, pH 8 buffer. Following dialysis, the formulations were concentrated to ˜0.6 mg/mL using VivaSpin concentrator units (MWCO 100,000) and dialyzed overnight against 5 mM Tris, 10% sucrose, pH 8 buffer. Formulations were filtered through a 0.2 μm syringe filter (PES membrane). Nucleic acid concentration was determined by the RiboGreen assay. Particle size and polydispersity were determined using a Malvern Nano Series Zetasizer.
LNP formulations containing novel ionizable lipids all produced stable particles with high encapsulation efficiency (Tables 1-7).
With `CCCCC/C=C\CCCC(CCC/C=C\CCCCC)CN(C(=O)CCCCN(C)C)C(CCCCCCCCCC)CCCCCCC(=O)OCCCCCCCCCC` (stereo not drawn) [Compound 35] the “Final Product % EE” value was 99%, the “Final Product PDI” value was 0.06 and the “Final Product Z-avg” value was 85 nm. For `CCCCC/C=C\CCCC(CCC/C=C\CCCCC)CN(C(=O)CCCN(C)C)C(CCCCCCCCCC)CCCCCCC(=O)OCCCCCCCCCC` (stereo not drawn) [Compound 36], the “Final Product % EE” value was 96%, the “Final Product PDI” value was 0.04 and the “Final Product Z-avg” value was 81 nm. With `CCCCC/C=C\CCCC(CCC/C=C\CCCCC)CN(C(=O)CCN(C)C)C(CCCCCCCCCC)CCCCCCC(=O)OCCCCCCCCCC` (stereo not drawn) [Compound 37] the “Final Product % EE” value was 82%, the “Final Product PDI” value was 0.05 and the “Final Product Z-avg” value was 73 nm. With `CCCCCCCCCCOC(=O)CCCCCCC(=O)N(CCCN(C)C)C(CCCCCCCCCC)CCCCCCC(=O)OCC(CCCCCC)CCCCCCCC` (stereo not drawn) [Compound 79] the “Final Product % EE” value was 99%, the “Final Product PDI” value was 0.06 and the “Final Product Z-avg” value was 65 nm. In the case of `CCCCCCCCCCC(CCCCCCC(=O)OCC(CCCCCC)CCCCCCCC)N(CCCN(C)C)C(=O)CCCCCCC(=O)OCC(CCCC)CCCCCC` (stereo not drawn) [Compound 78], the “Final Product % EE” value is reported as 99%, the “Final Product PDI” value is reported as 0.03 and the “Final Product Z-avg” value is reported as 65 nm.

Same assay, conditions: Table 5; luciferase mRNA LNP 1.6:54.6:32.8:10.9
For `CCCCCCCCCCC(CCCCCCC(=O)OCC(CCCCCC)CCCCCCCC)N(CCCN(C)C)C(=O)CCCCCCC(=O)OCCC(CCCCC)CCCCC` (stereo not drawn) [Compound 82], the “Final Product % EE” value was 99%, the “Final Product PDI” value was 0.03 and the “Final Product Z-avg” value was 64 nm. With `CCCCCCCCCCC(CCCCCCC(=O)OCC(CCCCCC)CCCCCCCC)N(CCCN(C)C)C(=O)CCCCCCC(=O)OCc1cc(CCCCCC)cc(CCCCCC)c1` (stereo not drawn) [Compound 83] the “Final Product % EE” value was 96%, the “Final Product PDI” value was 0.08 and the “Final Product Z-avg” value was 75 nm. With `CCCCCCCCCCC(CCCCCCC(=O)OCC(CCCCCC)CCCCCCCC)N(CCCN(C)C)C(=O)CCCCCCCCC(=O)OCC(CCCC)CCCCCC` (stereo not drawn) [Compound 81] the “Final Product % EE” value was 99%, the “Final Product PDI” value was 0.06 and the “Final Product Z-avg” value was 73 nm. In the case of `CCCCCCCCCCC(CCCCCCC(=O)OC(CCCCCCCC)CCCCCCCC)N(CCCCCCCC(=O)OCCC(CCCCC)CCCCC)C(=O)CCCN(C)C` (stereo not drawn) [Compound 68], the “Final Product % EE” value is reported as 99%, the “Final Product PDI” value is reported as 0.06 and the “Final Product Z-avg” value is reported as 67 nm. With `CCCCCCCCCCC(CCCCCCC(=O)OCC(CCCCCC)CCCCCCCC)N(CCCN(C)C)C(=O)CCCCCCCC(=O)OCC(CCCC)CCCCCC` (stereo not drawn) [Compound 80] the “Final Product % EE” value was 99%, the “Final Product PDI” value was 0.08 and the “Final Product Z-avg” value was 75 nm. With `CCCCCCCCCCC(CCCCCCC(=O)OCC(CCCCCC)CCCCCCCC)N(CCCCCCCC(=O)OCC(CCCCCC)CCCCCCCC)C(=O)CCCCN(C)C` (stereo not drawn) [Compound 64] the “Final Product % EE” value was 99%, the “Final Product PDI” value was 0.00 and the “Final Product Z-avg” value was 84 nm. For `CCCCCCCCCCC(CCCCCCC(=O)OC(CCCCCCCC)CCCCCCCC)N(CCCN(C)C)C(=O)CCCCCCC(=O)OCCC(CCCCC)CCCCC` (stereo not drawn) [Compound 31], the “Final Product % EE” value was 98%, the “Final Product PDI” value was 0.04 and the “Final Product Z-avg” value was 79 nm. In the case of `CCCCCCCCCCC(CCCCCCC(=O)OCCC(CCCCC)CCCCC)N(CCCN(C)C)C(=O)CCCCCCC(=O)OCCC(CCCCC)CCCCC` (stereo not drawn) [Compound 30], the “Final Product % EE” value is reported as 98%, the “Final Product PDI” value is reported as 0.03 and the “Final Product Z-avg” value is reported as 79 nm. For `CCCCCCCCCCC(CCCCCCC(=O)OCCC(CCCCC)CCCCC)N(CCCCCCCC(=O)OCCC(CCCCC)CCCCC)C(=O)CCCN(C)C` (stereo not drawn) [Compound 67], the “Final Product % EE” value was 99%, the “Final Product PDI” value was 0.04 and the “Final Product Z-avg” value was 77 nm. With `CCCCCCCCCCC(CCCCCCC(=O)OCC(CCCCCC)CCCCCCCC)N(CCCCCCCC(=O)OCC(CCCCCC)CCCCCCCC)C(=O)CCCN(C)C` (stereo not drawn) [Compound 63] the “Final Product % EE” value was 99%, the “Final Product PDI” value was 0.03 and the “Final Product Z-avg” value was 70 nm.

Same assay, conditions: Table 6; luciferase mRNA LNP 1.6:54.6:32.8:10.9
For `CCCCCCCCCCC(CCCCCCC(=O)OCC(CCCCCC)CCCCCCCC)N(OCCCCCCCCC)C(=O)CCCN(C)C` (stereo not drawn) [Compound 46], the “Final Product % EE” value was 99%, the “Final Product PDI” value was 0.11 and the “Final Product Z-avg” value was 72 nm. In the case of `CCCCCCCCCCC(CCCCCCC(=O)OCCC(CCCCCC)CCCCCC)N(CCCCCCCC(=O)OCCC(CCCCCC)CCCCCC)C(=O)CCCN(C)C` (stereo not drawn) [Compound 69], the “Final Product % EE” value is reported as 99%, the “Final Product PDI” value is reported as 0.07 and the “Final Product Z-avg” value is reported as 68 nm. For `CCCCCCCCCCC(CCCCCCC(=O)OCC(CCCCCC)CCCCCCCC)N(CCCN(C)C)C(=O)CCCCCCC(=O)OCCC(CCCCCC)CCCCCC` (stereo not drawn) [Compound 84], the “Final Product % EE” value was 98%, the “Final Product PDI” value was 0.04 and the “Final Product Z-avg” value was 80 nm. With `CCCCCCCCCCC(CCCCCCC(=O)OCC(CCCCCC)CCCCCCCC)N(CCCN(C)C)C(=O)CCCCCCC(=O)OCCC(CCCCCCC)CCCCCCC` (stereo not drawn) [Compound 85] the “Final Product % EE” value was 99%, the “Final Product PDI” value was 0.03 and the “Final Product Z-avg” value was 84 nm. With `CCCCCCCCCCC(CCCCCCC(=O)OCCC(CCCCCCC)CCCCCCC)N(CCCCCCCC(=O)OCCC(CCCCCCC)CCCCCCC)C(=O)CCCN(C)C` (stereo not drawn) [Compound 71] the “Final Product % EE” value was 97%, the “Final Product PDI” value was 0.02 and the “Final Product Z-avg” value was 86 nm. In the case of `CCCCCCCCCCON(C(=O)CCCCN(C)C)C(CCCCCCCCCC)CCCCCCC(=O)OCC(CCCCCC)CCCCCCCC` (stereo not drawn) [Compound 45], the “Final Product % EE” value is reported as 99%, the “Final Product PDI” value is reported as 0.01 and the “Final Product Z-avg” value is reported as 83 nm.

Same assay, conditions: Table 7; luciferase mRNA LNP 1.6:54.6:32.8:10.9
In the case of `CCCCCCCCCCC(CCCCCCC(=O)OCCC(CCCCC)CCCCC)N(CCCCCC(F)C(=O)OCCC(CCCCC)CCCCC)C(=O)CCCN(C)C` (stereo not drawn) [Compound 86], the “Final Product % EE” value is reported as 99%, the “Final Product PDI” value is reported as 0.23 and the “Final Product Z-avg” value is reported as 65 nm. In the case of `CCCCCCCCCCC(CCCCCCC(=O)OCCC(CCCCC)CCCCC)N(CCCCCCCCC(=O)OCCC(CCCCC)CCCCC)C(=O)CCCCN(C)C` (stereo not drawn) [Compound 75], the “Final Product % EE” value is reported as 99%, the “Final Product PDI” value is reported as 0.03 and the “Final Product Z-avg” value is reported as 84 nm. In the case of `CCCCCCCCCCC(CCCCCCC(=O)OCC(CCCCCC)CCCCCCCC)N(CCCCCCC(F)(F)C(=O)OCC(CCCCCC)CCCCCCCC)C(=O)CCCN(C)C` (stereo not drawn) [Compound 33], the “Final Product % EE” value is reported as 99%, the “Final Product PDI” value is reported as 0.12 and the “Final Product Z-avg” value is reported as 61 nm. In the case of `CCCCCCCCCCC(CCCCCCC(=O)OCCC(CCCCC)CCCCC)N(CCCCCCCC(=O)OCc1cc(CCCCCC)cc(CCCCCC)c1)C(=O)CCCN(C)C` (stereo not drawn) [Compound 66], the “Final Product % EE” value is reported as 99%, the “Final Product PDI” value is reported as 0.04 and the “Final Product Z-avg” value is reported as 73 nm.
